The campaign covered roughly 360,000 compounds. About 660 (0.18%) were called active. Inconclusive results, whose numbers are uncertain, are shown with a selection of clear calls. The call rests on the fitted dose curve; in most records, active means well fitted inhibition curve with a large enough effect; inconclusive means small, poorly fitted or top-dose-only effect; inactive means no such curve, though single readings can be large or run the other way. No potency is given beside an inconclusive call; the fits are too rough.
biological target: Rap guanine nucleotide exchange factor 4 (Homo sapiens) (UniProt Q8WZA2); assay: qHTS for Antagonist of cAMP-regulated guanine nucleotide exchange factor 2 (EPAC2): primary screen; details: EPAC2 GEF exchange of Rap1B-BODIPY-GDP, fluorescence; activity, negative = inhibition: at 114 µM (top of the series); further: nearly all actives have a fitted effect of over 45% in size
Sequence of UniProt Q8WZA2 (Q8WZA2 whole entry, looked up): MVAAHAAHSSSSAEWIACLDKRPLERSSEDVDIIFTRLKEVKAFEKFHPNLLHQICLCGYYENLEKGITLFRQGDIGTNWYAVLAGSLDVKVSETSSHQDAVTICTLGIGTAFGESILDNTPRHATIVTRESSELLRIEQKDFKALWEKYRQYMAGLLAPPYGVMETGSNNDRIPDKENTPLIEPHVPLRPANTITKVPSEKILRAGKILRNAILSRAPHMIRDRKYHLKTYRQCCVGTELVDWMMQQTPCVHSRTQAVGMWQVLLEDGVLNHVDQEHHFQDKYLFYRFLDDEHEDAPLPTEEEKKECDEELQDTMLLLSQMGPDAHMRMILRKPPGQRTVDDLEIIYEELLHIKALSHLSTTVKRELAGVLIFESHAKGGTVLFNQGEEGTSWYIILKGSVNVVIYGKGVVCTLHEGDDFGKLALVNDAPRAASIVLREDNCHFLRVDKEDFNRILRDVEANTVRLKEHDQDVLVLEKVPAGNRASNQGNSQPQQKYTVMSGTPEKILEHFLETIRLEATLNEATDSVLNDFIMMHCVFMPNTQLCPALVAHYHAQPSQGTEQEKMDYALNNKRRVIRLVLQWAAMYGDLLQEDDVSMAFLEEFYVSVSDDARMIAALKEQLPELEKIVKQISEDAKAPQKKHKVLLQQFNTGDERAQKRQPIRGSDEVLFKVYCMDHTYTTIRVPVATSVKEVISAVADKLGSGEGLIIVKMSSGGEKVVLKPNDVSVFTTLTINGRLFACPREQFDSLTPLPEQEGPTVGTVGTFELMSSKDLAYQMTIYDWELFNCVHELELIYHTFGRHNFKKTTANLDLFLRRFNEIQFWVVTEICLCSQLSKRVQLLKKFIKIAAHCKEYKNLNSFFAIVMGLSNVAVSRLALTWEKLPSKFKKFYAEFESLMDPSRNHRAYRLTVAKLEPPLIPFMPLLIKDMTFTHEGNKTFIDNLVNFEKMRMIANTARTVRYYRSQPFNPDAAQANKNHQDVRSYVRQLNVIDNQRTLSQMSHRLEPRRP
On the % scale 0 is the no-effect control and ±100 the full control effect; potency means the concentration at half of the fitted maximal effect; tags describe the fitted curve by direction and shape.

Row | SMILES | Potency | activity, negative = inhibition
1 | Cc1nc2cc(C(F)(F)F)ccc2n1C1CCN(Cc2nnnn2CCc2ccccc2)CC1 | inconclusive [inhibitor, single point] | –
2 | CSc1ccc(C(=O)C2CCCN(Cc3cc4ccccc4[nH]3)C2)cc1 (stereo not drawn) | inactive | –
3 | NS(=O)(=O)c1ccc(-c2ccc(C=C3C(=O)NC(=O)NC3=O)o2)cc1 | inactive | –
4 | CC(C)CCOP(=O)(c1ccc(N(C)C)cc1)C(O)c1c(Cl)cccc1Cl (stereo not drawn) | inconclusive [inhibitor, partial curve] | –
5 | O=c1[nH]c2ccccc2n1C1CCN(C(c2cc3ccccc3o2)c2nnnn2-c2ccc3c(c2)OCCO3)CC1 (stereo not drawn) | inconclusive [inhibitor, single point] | –
6 | O=P(c1ccccc1)(c1nc2ccccc2s1)N1CCOCC1 (stereo not drawn) | inconclusive [inhibitor, single point] | –
7 | Cc1ccc2c(c1)C=CC(C#N)N2C(=O)Oc1ccccc1 (stereo not drawn) | inconclusive [inhibitor, full curve] | –
8 | c1ccc(N2[C@@H]3CC[C@H]2c2ccccc2C3)cc1 | inconclusive [inhibitor, partial curve] | –
9 | CCOC(=O)[C@]12Cc3ccc(C)cc3[C@H]1N(C1CCCCC1)C(=O)c1cc(OC)ccc12 | inconclusive [inhibitor, full curve] | –
10 | O=P(NC(c1ccccc1)c1ccccc1)(Oc1ccccc1)Oc1ccccc1 | inactive | –
11 | Cc1nc2ccccn2c1P(=S)(c1ccccc1)c1ccccc1 | inconclusive [inhibitor, partial curve] | –
12 | CCOc1ccc(-n2c(-c3cccs3)nc3ccccc3c2=O)cc1 | inactive | –
13 | CCN(CC)c1ccc(N=Cc2c(O)n(-c3ccccc3C)c(=O)[nH]c2=O)cc1 | inactive | –
14 | CCn1nc(-c2cccs2)nc2c(=O)n(C)c(=O)nc1-2 | inconclusive [inhibitor, full curve] | –
15 | CCOC(=O)[C@]12Cc3ccccc3[C@H]1N(C(C)C)C(=O)c1cc(OC)ccc12 | inconclusive [inhibitor, full curve] | –
16 | CCOC(=O)[C@]12Cc3cc(Cl)ccc3[C@H]1N(C(C)C)C(=O)c1ccccc12 | active: 16.8 µM | –
17 | COC(=O)C1=C(c2ccc(OC(F)(F)F)cc2)C[C@@H]2CC[C@H]1N2C(=O)NCCOc1ccc(OC)cc1 | inconclusive [inhibitor, full curve] | –
18 | CC(C)(OOC1(c2ccccc2)NC(=O)c2ccccc21)c1ccccc1 (stereo not drawn) | inconclusive [inhibitor, partial curve] | –
19 | Cc1ccc(N2C(=O)NC(=O)/C(=C\c3cccn3C(C)(C)C)C2=O)cc1 | inactive | –
20 | Cc1nc2ccc(NC(=O)C3COc4ccccc4O3)cc2s1 (stereo not drawn) | inconclusive [inhibitor, single point] | –
21 | Cc1cc(C(=O)OCC(=O)NC(=O)c2cccn2C)c2ccccc2n1 | inconclusive [inhibitor, full curve, poor fit] | –
22 | CCOC(=O)c1ccc2c(c1)N(CC)C(=O)c1ccccc1S2 | inconclusive [inhibitor, full curve] | –
23 | c1ccc(CCCN2CCN(CCOC(c3ccccc3)c3ccccc3)CC2)cc1 | inconclusive [inhibitor, single point] | –

Row | SMILES | Potency | activity, negative = inhibition
24 | O=C(OC1CCN(CCCl)CC1)C(c1ccccc1)c1ccccc1 | active: 12.6 µM | –
25 | N/C(=N\N=C/c1ccc(-c2ccc(O)c(C(=O)O)c2)o1)N[N+](=O)[O-] | inconclusive [inhibitor, full curve] | –
26 | CCOP(=O)(NC(C)C)Oc1ccc(SC)c(C)c1 (stereo not drawn) | inconclusive [inhibitor, partial curve] | –
27 | COc1ccc(-c2oc(=O)n(C)c2-c2ccc(OC)cc2)cc1 | inconclusive [inhibitor, partial curve] | –
28 | O=c1oc2ccccc2c(O)c1C(c1ccc([N+](=O)[O-])cc1)c1c(O)c2ccccc2oc1=O | active: 50.1 µM | –
29 | COc1ccc(-c2nc3ccc(C(=O)N4CCC5(CC4)OCCO5)cc3nc2-c2ccc(OC)cc2)cc1 | inconclusive [inhibitor, single point] | –
30 | COc1ccc(C(=O)C2CN(C)CC2c2ccc(Cl)cc2)cc1 (stereo not drawn) | inconclusive [inhibitor, partial curve] | –
31 | CN1C(=O)C(=Cc2ccc(N3CCOCC3)o2)C(=O)N(C)C1=O | inconclusive [inhibitor, partial curve] | –
32 | COc1ccc(-n2nnnc2C(c2ccccc2OC(F)(F)F)N2CCC(n3c(=O)[nH]c4ccccc43)CC2)cc1 (stereo not drawn) | inconclusive [inhibitor, full curve, poor fit] | –
33 | NC(Cc1ccc(F)cc1)c1csc(Nc2ncccn2)n1 (stereo not drawn) | inactive | –
34 | O=C1NC(=O)N(c2ccc(F)cc2)C(=O)/C1=C/c1ccc2c(c1)CCCN2Cc1ccccc1 | inconclusive [inhibitor, single point] | –
35 | Clc1ccc(CSc2nnc(-c3ccccn3)n2Cc2ccco2)cc1Cl | inconclusive [inhibitor, partial curve] | –
36 | COC(=O)c1cn(Cc2ccc(F)cc2)c2ccccc12 | inconclusive [inhibitor, partial curve] | –
37 | COc1ccc(CCn2c(O)c(C=Nc3ccc(F)cc3)c(=O)[nH]c2=O)cc1OC | inactive | –
38 | O=C1C=C(N2CC2)c2ccccc2C1=O | inconclusive [inhibitor, partial curve] | –
39 | Nc1c(C(=O)NCc2ccco2)c2nc3ccccc3nc2n1Cc1ccccc1 | inactive | –
40 | C/C(=C/CCC(C)[C@H]1CC[C@@]2(C)C3=C(CC[C@]12C)[C@@]1(C)CCC(=O)C(C)(C)[C@@H]1CC3)C(=O)O (stereo partly drawn) | inconclusive [inhibitor, partial curve] | –
41 | CCOc1ccc(S(=O)(=O)NCc2ccc3c(c2)OCO3)cc1C | inconclusive [inhibitor, partial curve] | –
42 | CC(C)c1ccc(NC(=O)Nc2nc(C(N)CCc3ccccc3)cs2)cc1 (stereo not drawn) | inactive | –
43 | O=[N+]([O-])c1cccc(NP(=O)(Oc2ccccc2)Oc2ccccc2)c1 | active: 25.1 µM | –
44 | O=C1NC(=S)NC(=O)C1=Cc1ccc(Br)s1 | inactive | –
45 | O=c1[nH]c(=S)n(-c2ccc(Br)cc2)c(O)c1C=Nc1ccc(N2CCOCC2)cc1 | inactive | –
46 | CN(Cc1cccc(-c2ccncc2)c1)C(=O)Oc1ccccc1Cc1ccccc1 | inconclusive [inhibitor, full curve] | –

Row | SMILES | Potency | activity, negative = inhibition
47 | COC(=O)C1=C(C(=O)OC)SC2(S1)C(C(=O)OC)=C(C(=O)OC)Sc1c2ssc1=O | inactive | –
48 | O=C1NCN(c2ccccc2)C12CCN(C(c1ccccc1OC(F)(F)F)c1nnnn1Cc1ccccc1)CC2 (stereo not drawn) | inconclusive [inhibitor, partial curve] | –
49 | COC(=O)C1=C(c2ccc(Cl)c(C(F)(F)F)c2)C[C@@H]2CC[C@H]1N2C(=O)NCCOc1ccc(OC)cc1 | inconclusive [inhibitor, full curve] | –
50 | COc1ccc(C[C@@H]2c3cc(O)c(OC)cc3CCN2C)cc1O | inactive | –
51 | CCCNC(=O)c1c(N)n(CC2CCCO2)c2nc3ccccc3nc12 (stereo not drawn) | inactive | –
52 | O=S1(=O)CC2(N3CCOCC3)CCCCC21 (stereo not drawn) | inactive | –
53 | Cc1onc(-c2c(Cl)cccc2Cl)c1C(=O)Nc1ccc2c(C(F)(F)F)cc(=O)oc2c1 | inconclusive [inhibitor, partial curve] | –
54 | CCCCn1c(O)c(C=NCCN2CCCCC2)c(=O)[nH]c1=O | inconclusive [inhibitor, single point] | –
55 | CCOC(=O)[C@]12Cc3cc(C)ccc3[C@H]1N(C(C)C)C(=O)c1ccccc12 | inconclusive [inhibitor, single point] | –
56 | CCOP(=O)(OCC)c1ccc2c(c1)C(=O)c1ccccc1CC2 | inconclusive [inhibitor, full curve, poor fit] | –
57 | N#CC(C#N)=NNc1ccc([N+](=O)[O-])cc1 | inconclusive [inhibitor, partial curve] | –
58 | CCOc1cc2c(cc1OCC)-n1cccc1C(c1ccccc1O)NC2 (stereo not drawn) | inconclusive [inhibitor, full curve, poor fit] | –
59 | COc1ccc(N2C(=O)NC(=O)/C(=C/c3cccc(OC(=O)c4cccs4)c3)C2=O)cc1Cl | inactive | –
60 | CN1C(=O)C(=Cc2ccccc2OCc2ccc(C(=O)O)cc2)C(=O)N(C)C1=O | inactive | –
61 | COC(=O)C1=C(c2ccc(OC(F)(F)F)cc2)C[C@@H]2CC[C@H]1N2C(=O)NCCCOC(C)C | inactive | –
62 | O=P(Nc1ccccc1)(Oc1ccccc1)Oc1ccccc1 | inconclusive [inhibitor, full curve, poor fit] | –
63 | N#Cc1cc(NC(=O)c2ccc(Cl)cc2)ccc1Sc1ccccc1 | inconclusive [inhibitor, single point] | –
64 | O=c1c2ccccc2sn1-c1ccc(Cl)cc1 | inconclusive [inhibitor, partial curve] | –
65 | CCCOC(=O)c1ccccc1C(=O)OCCC | inconclusive [inhibitor, full curve] | –
66 | CCOC(=O)[C@]12Cc3cc(Cl)ccc3[C@H]1N(C1CCCCC1)C(=O)c1ccccc12 | inconclusive [inhibitor, full curve] | –
67 | Clc1ccc(C(OCCN2CCCCC2)c2ccccc2)cc1 (stereo not drawn) | inactive | –
68 | CCCNC(=O)N1[C@H]2CC[C@@H]1C(C(=O)OC)=C(c1ccc(Cl)c(C(F)(F)F)c1)C2 | – | inconclusive: -34.4% [inhibitor]
